A lower IC50 marks a more sensitive line; a limit (>, <) means that the fit lies beyond the doses tested. The AUC spans the tested range (256-fold, ending at the top dose) of the same fit; values near 1 show little effect. For part of these data: Any top dose called inferred was derived from the fitted curves, not read from the paper.

Holding throughout (assay): Viability of human cancer cell lines after 72 h of drug (GDSC screen)
Compound in one experiment: CO[C@H]1C[C@@H]2CC[C@@H](C)[C@@](O)(O2)C(=O)C(=O)N2CCCC[C@H]2C(=O)O[C@H]([C@H](C)C[C@@H]2CC[C@@H](OC(=O)C(C)(CO)CO)[C@H](OC)C2)CC(=O)[C@H](C)/C=C(\C)[C@@H](O)[C@@H](OC)C(=O)[C@H](C)C[C@H](C)/C=C/C=C/C=C/1C [Temsirolimus]
The settings on record: top dose 0.2 µM. On the procedure:
(§1)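 Human cancer cell lines in 384-well plates, medium with 10% serum, drug for 72 h over a 256-fold dose range (nine 2-fold or five 4-fold steps up to the top dose). Adherent lines were fixed and stained with the nucleic acid dye Syto60, suspension lines read with resazurin; signal relative to control wells, capped at 0 and 100%. One two-parameter sigmoid per drug and line, fitted in a mixed model over all curves with the slope shared within a line.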

Compound in a further experiment: CC(=O)O[C@@H]1[C@@H](OC(C)=O)[C@@H](O)[C@H](Oc2c(-c3ccc(O)cc3)oc3cc(O)cc(O)c3c2=O)O[C@H]1C [SL 0101-1]
The settings on record: top dose 10 µM; top dose inferred. As to the method: as §1

Compound in another experiment: C=CC(=O)Nc1ccc(C(=O)c2sc(Nc3ccc(N4CCN(C)CC4)cc3OC)nc2N)cc1 [XMD15-27]
The note with it: top dose 10.24 µM; top dose inferred. On the procedure: as §1

Broadly, the IC50 is the concentration at which inhibition is half-maximal. As for Daudi (Burkitt lymphoma, suspension), the AUC came to 0.968 in the experiment with Temsirolimus, 0.987 in the experiment with SL 0101-1 and 0.991 with XMD15-27. The results for the IC50 in the experiment with Temsirolimus, in the experiment with SL 0101-1 and with XMD15-27 were > 0.2 µM, > 10 µM and > 10.2 µM, respectively.
As for Detroit562 (head and neck, adherent), the AUC in the experiment with Temsirolimus amounted to 0.831; with SL 0101-1 it was 0.977; in the experiment with XMD15-27, 0.988. Also, the IC50 with Temsirolimus was 0.12 µM; with SL 0101-1, > 10 µM; with XMD15-27, > 10.2 µM.
As to DoTc2-4510 (cervix, adherent), the AUC with Temsirolimus turned out to be 0.928; in the experiment with SL 0101-1, 0.988; with XMD15-27, 0.989. The IC50 with Temsirolimus was > 0.2 µM; with SL 0101-1 it was > 10 µM; with XMD15-27, > 10.2 µM.
For EB2 (Burkitt lymphoma, suspension), the AUC came to 0.987 with Temsirolimus, 0.99 with SL 0101-1 and 0.963 with XMD15-27. Further, the IC50 with Temsirolimus was > 0.2 µM; with SL 0101-1, > 10 µM; in the experiment with XMD15-27, > 10.2 µM.
As to EB-3 (Burkitt lymphoma, suspension), the AUC is 0.948 with Temsirolimus, 0.984 in the experiment with SL 0101-1 and 0.98 in the experiment with XMD15-27. Moreover, the IC50 with Temsirolimus was > 0.2 µM; with SL 0101-1, > 10 µM; with XMD15-27, > 10.2 µM.
As for “EBC-1 (lung squamous cell carcinoma, adherent)”, the AUC with Temsirolimus came to 0.686; with SL 0101-1 it was 0.978; in the experiment with XMD15-27, 0.981. The IC50 is 0.0446 µM with Temsirolimus, > 10 µM with SL 0101-1 and > 10.2 µM with XMD15-27.
On to EC-GI-10 (oesophagus, adherent), for which the AUC with Temsirolimus turned out to be 0.861; with SL 0101-1, 0.975; with XMD15-27, 0.989. Also, the IC50 with Temsirolimus was 0.166 µM; with SL 0101-1, > 10 µM; with XMD15-27 it was > 10.2 µM.
Regarding ECC10 (stomach, suspension), the AUC with Temsirolimus worked out at 0.914; with SL 0101-1, 0.94; with XMD15-27, 0.917. The IC50 is > 0.2 µM in the experiment with Temsirolimus, > 10 µM with SL 0101-1 and > 10.2 µM with XMD15-27.
With EFM-192A (breast, adherent), the AUC stood at 0.72 with Temsirolimus, 0.976 with SL 0101-1 and 0.985 with XMD15-27. The figures for the IC50 with Temsirolimus, with SL 0101-1 and with XMD15-27 were 0.0568 µM, > 10 µM and > 10.2 µM, respectively.
Consider EFO-21 (ovary, adherent), for which the AUC with Temsirolimus amounted to 0.941; with SL 0101-1, 0.969; with XMD15-27, 0.971. The IC50 with Temsirolimus is > 0.2 µM; with SL 0101-1, > 10 µM; in the experiment with XMD15-27, > 10.2 µM.
Turning to EFO-27 (ovary, adherent), the AUC in the experiment with Temsirolimus worked out at 0.557; with SL 0101-1, 0.967; with XMD15-27, 0.98. Also, the 50% inhibitory concentration (IC50) with Temsirolimus was 0.0186 µM; in the experiment with SL 0101-1, > 10 µM; in the experiment with XMD15-27, > 10.2 µM.
As for EGI-1 (biliary tract, adherent), the results for the AUC with Temsirolimus, with SL 0101-1 and in the experiment with XMD15-27 were 0.545, 0.92 and 0.982, respectively. Further, the IC50 was 0.0172 µM with Temsirolimus, > 10 µM with SL 0101-1 and > 10.2 µM with XMD15-27.
For the cell line EJM (lymphoid neoplasm, semi-adherent), the AUC stood at 0.89 with Temsirolimus, 0.988 with SL 0101-1 and 0.985 in the experiment with XMD15-27. Also, the IC50 in the experiment with Temsirolimus was 0.167 µM; with SL 0101-1, > 10 µM; in the experiment with XMD15-27 it was > 10.2 µM.
EKVX (lung adenocarcinoma, adherent): the AUC with Temsirolimus is 0.725; in the experiment with SL 0101-1, 0.961; with XMD15-27 it was 0.966. The values for the IC50 with Temsirolimus, in the experiment with SL 0101-1 and in the experiment with XMD15-27 were 0.118 µM, > 10 µM and > 10.2 µM, respectively.
Regarding “EM-2 (chronic myeloid leukaemia, suspension)”, the AUC with Temsirolimus is 0.76; in the experiment with SL 0101-1 it was 0.982; in the experiment with XMD15-27, 0.977. The results for the IC50 with Temsirolimus, with SL 0101-1 and in the experiment with XMD15-27 were 0.0792 µM, > 10 µM and > 10.2 µM, respectively.
For the cell line “EMC-BAC-1 (lung adenocarcinoma, adherent)”, the figures for the AUC with Temsirolimus, with SL 0101-1 and with XMD15-27 were 0.825, 0.975 and 0.909, respectively. Also, the IC50 with Temsirolimus is 0.143 µM; with SL 0101-1, > 10 µM; with XMD15-27, > 10.2 µM.
Turning to “EMC-BAC-2 (lung adenocarcinoma, adherent)”, the AUC was found to be 0.549 with Temsirolimus, 0.982 with SL 0101-1 and 0.957 in the experiment with XMD15-27. For the same cell line, the IC50 in the experiment with Temsirolimus was 0.0174 µM; in the experiment with SL 0101-1 it was > 10 µM; with XMD15-27, > 10.2 µM.
As to EN (endometrium, adherent), the values for the AUC with Temsirolimus, in the experiment with SL 0101-1 and in the experiment with XMD15-27 were 0.861, 0.984 and 0.984, respectively. In addition, the IC50 was > 0.2 µM with Temsirolimus, > 10 µM with SL 0101-1 and > 10.2 µM with XMD15-27.

The values above are taken from the supplement of paper PMC4967469.
